Laboratory results taken from PubChem BioAssay AID488969 (Vanderbilt High Throughput Screening Facility, 2010).
The full ranking holds about 110,000 compounds; the median of “z-score” is about -0.1, and the highest 2% start at about 2. This is one part of the list. Active and inactive are the calls of the source.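 How the source made its calls: active means z-score in the third read window above 3 or below -3; inactive means the rest.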

Molecular target: Metabotropic glutamate receptor 8 (Rattus norvegicus) (UniProt P70579)
Test: rat mGluR8 modulators via GIRK flux, primary screen, cell-based, thallium flux, HTS (AID 488969)
Conditions: HEK293 rat mGluR8, GIRK (G protein-gated inwardly rectifying potassium channel) thallium flux, FluoZin2; at 10 µM; stronger effect = higher value; submaximal glutamate (EC20) added with thallium

UniProt P70579, sequence (P70579 whole entry, looked up): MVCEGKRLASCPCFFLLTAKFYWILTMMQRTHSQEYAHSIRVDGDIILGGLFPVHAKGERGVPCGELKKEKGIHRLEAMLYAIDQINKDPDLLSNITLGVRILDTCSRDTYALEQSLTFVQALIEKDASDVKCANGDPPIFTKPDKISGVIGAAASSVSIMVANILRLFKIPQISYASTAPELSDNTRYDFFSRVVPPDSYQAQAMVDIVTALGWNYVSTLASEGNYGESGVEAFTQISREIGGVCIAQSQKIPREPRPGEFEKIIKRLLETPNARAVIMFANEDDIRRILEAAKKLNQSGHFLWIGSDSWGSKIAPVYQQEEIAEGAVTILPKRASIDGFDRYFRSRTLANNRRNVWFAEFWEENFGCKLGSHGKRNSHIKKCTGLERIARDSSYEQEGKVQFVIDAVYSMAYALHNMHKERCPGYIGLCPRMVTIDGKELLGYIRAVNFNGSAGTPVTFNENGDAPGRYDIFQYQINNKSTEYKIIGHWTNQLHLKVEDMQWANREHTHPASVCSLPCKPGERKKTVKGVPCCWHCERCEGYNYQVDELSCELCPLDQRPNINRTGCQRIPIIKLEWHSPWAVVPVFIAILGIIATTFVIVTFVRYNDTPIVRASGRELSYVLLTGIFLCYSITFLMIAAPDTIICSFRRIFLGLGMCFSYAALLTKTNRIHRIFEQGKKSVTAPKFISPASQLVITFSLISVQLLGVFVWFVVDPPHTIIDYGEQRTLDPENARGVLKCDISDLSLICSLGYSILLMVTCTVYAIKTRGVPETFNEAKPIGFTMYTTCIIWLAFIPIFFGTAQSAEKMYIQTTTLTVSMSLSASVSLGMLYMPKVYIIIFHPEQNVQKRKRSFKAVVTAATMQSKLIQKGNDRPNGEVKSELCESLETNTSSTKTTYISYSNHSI

Going from `Cc1oc2c(c1C(=O)NCCCC(=O)O)CCCC2` to `O=C(Cn1nc(C(F)(F)F)c2c1CCCC2)NCCN1CCOCC1`, the z-score falls from -0.129 to -0.184.

Going from `CC(C)CCOC(=O)/C(=C/c1ccco1)NC(=O)/C=C/c1ccccc1` to `CCOC(=O)/C(=C\C=C\c1ccccc1)NC(=O)c1ccccc1`, the z-score falls from -0.342 to -0.692.

Compared with `Cn1ccnc1Sc1ccc(/C=N/NC(=O)c2ccccc2[N+](=O)[O-])cc1[N+](=O)[O-]`, `COC(=O)c1ccccc1NC(=S)NC(NC(=O)c1ccccc1[N+](=O)[O-])C(Cl)(Cl)Cl` (configuration not stated) is higher in z-score: -0.639 for the first, 2.67 for the second.

Going from `CCOC(=O)N1CCN(C(=O)CSCc2ccccc2)CC1` to `CC(=O)c1ccc(OCC(O)CN2CCN(Cc3ccccc3)CC2)cc1` (configuration not stated), the z-score rises from -0.13 to -0.101.

Compared with `CC1(C)C(=O)N(OCc2ccccc2)C(C)(C)C(=O)N1OCc1ccccc1`, `CC(=O)N(Cc1ccc(F)cc1)C1=C(NCc2ccccc2)C(=O)c2ccccc2C1=O` is higher in z-score: -0.427 for the first, 2.03 for the second.

Compared with `COc1ccccc1-n1cnc2cc(C(=O)NCC3CCCO3)ccc21` (configuration not stated), `Cc1ccc(-c2nnc(N3CCCCC3)c3ccccc23)cc1S(=O)(=O)NCC1CCCO1` (configuration not stated) is lower in z-score: -0.481 for the first, -0.815 for the second.

First: COc1cc(-c2nc(-c3ccc(Br)o3)no2)cc(OC)c1OC
Second: COc1cc(-c2nc(-c3ccc(NC(=O)c4ccc(Br)o4)cc3)no2)cc(OC)c1OC
The z-score of the first is higher: -0.294 for the first, -1.33 for the second.

Compared with `O=C(O)CC1NC(=O)N(c2ccccc2)C1=O` (configuration not stated), `CC(C)(C)c1cc(NC(=O)COC(=O)C2CC2)n(-c2ccccc2)n1` is higher in z-score: -0.116 for the first, 0.806 for the second.

Going from `CCOC(=O)c1oc2cc(C)cc(O)c2c(=O)c1-c1csc(C)n1` to `Cc1cc(=O)oc2cc(OCC(=O)Nc3nnc(CC(C)C)s3)ccc12`, the z-score rises from -0.268 to -0.0633.

First: COc1cc2c(cc1OC)C(c1ccccc1F)OC(=O)C2 (configuration not stated)
Second: COc1cc2nc(CN3C(=O)c4ccccc4C3=O)oc(=O)c2cc1OC
The z-score of the first is higher: -0.198 for the first, -0.733 for the second.

Compared with `Cc1ccc(CNc2ccc3c(c2)OCO3)c(C)c1`, `Cc1cc(C)c(S(=O)(=O)NCc2ccncc2)c(C)c1` is higher in z-score: -0.493 for the first, -0.32 for the second.

Going from `O=C1NC(=O)C(CC(=O)N(Cc2ccco2)C2(C(=O)NC3CCCC3)CCCCC2)N1` (configuration not stated) to `O=C(NC1CCCCC1)C(c1ccco1)N(Cc1ccco1)C(=O)c1ccco1` (configuration not stated), the z-score falls from -0.354 to -0.364.

Compared with `c1ccc(Cc2nnc(Sc3ccccc3)c3ccccc23)cc1`, `CCOc1ccccc1C1C2C(=O)N(c3ccccc3)C(=O)C2ON1c1ccccc1` (configuration not stated) is higher in z-score: -0.622 for the first, 1.85 for the second.

Compared with `CC(=O)c1cccc(S(=O)(=O)N(CCCO)Cc2cc3ccc(C)cc3[nH]c2=O)c1`, `COc1cccc(C(=O)N(Cc2ccco2)Cc2cc3cccc(C)c3[nH]c2=O)c1` is higher in z-score: -0.396 for the first, 0.716 for the second.

First: CN(CCO)c1cc(Sc2nc3ccccc3s2)c2nonc2c1[N+](=O)[O-]
Second: O=S(=O)(c1cccc(-c2nnc(SCc3nc4ccccc4s3)o2)c1)N1CCOCC1
The z-score of the first is higher: 0.935 for the first, -0.0837 for the second.

Going from `CCSC1=N/C(=C\c2ccccc2)C(=O)N1` to `Cc1nnc2sc(SCc3ccccc3)nn2c1=O`, the z-score rises from -0.297 to -0.0579.

Going from `COc1ccc(CCNC(=O)CSc2nc3cc(Cl)ccc3o2)cc1OC` to `O=C(CSc1nnc(Cn2nnc3ccccc32)o1)Nc1cccc(Cl)c1`, the z-score rises from -0.127 to 0.0579.

First: COC(=O)c1ccc(Cn2nnc3ccccc3c2=O)o1
Second: COc1ccc(OC)c(NC(=O)c2nnn(Cc3ccccc3C)c2N)c1
The z-score of the first is lower: -0.379 for the first, 0.662 for the second.

Compared with `Cc1cc(C)cc(OCC(=O)NC2=NCCS2)c1`, `CCCn1nnnc1NC(=O)c1ccc(C)cc1Cl` is lower in z-score: -0.0355 for the first, -0.0666 for the second.

First: N#CNC1=NCN(CCc2ccccc2)CN1
Second: Nc1nncn1C(=O)CCc1ccccc1
The z-score of the first is lower: -0.0746 for the first, 0.876 for the second.

Going from `CC1CC(NC(=O)Cc2ccc(Br)cc2)CC(C)(C)C1` (configuration not stated) to `CC(C)Cc1ccc(S(=O)(=O)N2CCCC2)cc1`, the z-score rises from -0.226 to 0.201.

Going from `Cc1cccc(-n2c(SCc3cc(=O)n4ccsc4n3)nc3ccccc32)c1` to `CC(C)NC(=O)Cn1c(SCC(=O)c2ccc(F)cc2)nc2ccccc21`, the z-score rises from -0.736 to -0.423.

Going from `CCCCOc1ccc(N2C(=O)CC(N(O)c3ccccc3)C2=O)cc1` (configuration not stated) to `Cc1cccc2c1N(CCCOc1ccccc1)C(=O)C2=O`, the z-score falls from -0.0742 to -0.16.

Compared with `COC1(OC)C(/C=C/c2ccc(Cl)cc2)C(C#N)(C#N)C1(OC)OC` (configuration not stated), `COc1cc(C2NC(=O)C(C#N)=C(S)N2c2ccccc2)ccc1OC(C)C` (configuration not stated) is lower in z-score: -0.422 for the first, -0.564 for the second.

Compared with `Cc1ccc(-c2nc3ccccc3[nH]2)cc1NC(=O)/C=C/c1ccco1`, `CCCn1c(NCc2ccco2)nc2ccccc21` is higher in z-score: -0.472 for the first, -0.0878 for the second.

Going from `O=C1c2cccnc2-c2ncccc21` to `O=C(Nc1ccccn1)c1ccc2c(c1)S(=O)(=O)c1ccccc1C2=O`, the z-score falls from 0.109 to 0.0299.

Compared with `CSCCC(NS(=O)(=O)c1ccc(Cl)cc1)C(=O)OCC(=O)c1ccc(F)cc1` (configuration not stated), `CCOc1ccc(NS(=O)(=O)c2ccc(N)cc2)cc1` is higher in z-score: -0.372 for the first, -0.108 for the second.

Going from `O=C(O)C1CC=CCC1C(=O)N1CCc2ccccc21` (configuration not stated) to `O=C(COC(=O)C1(c2ccc(Cl)cc2)CCCC1)N1CCc2ccccc21`, the z-score falls from -0.0135 to -0.252.

First: CC1CCc2nc(N)c(C#N)c(-c3cccnc3)c2C1 (configuration not stated)
Second: O=C(Nc1cccnc1)C1CCCN1S(=O)(=O)c1ccc(Cl)c(Cl)c1 (configuration not stated)
The z-score of the first is higher: 0.143 for the first, 0.0506 for the second.

Going from `CN(C)c1nc(Nc2ccccc2)nc(N(C)C)n1` to `COc1ccc(NC(=O)c2cccnc2Nc2ccccc2)cc1`, the z-score falls from -0.0585 to -0.282.

Compared with `CCc1cc2cccc(C)c2nc1SCC(=O)NNC(=O)c1ccco1`, `O=C(CCNC(=O)Cn1ccc2ccccc2c1=O)NCCc1ccccc1Cl` is lower in z-score: 1.88 for the first, -0.0359 for the second.

First: O=C(Nc1nnc(C2CCCC2)s1)C1CCN(S(=O)(=O)c2ccc(Cl)cc2)CC1
Second: CCN(Cc1ccncc1)C(=O)C1CCN(S(=O)(=O)c2cccs2)CC1
The z-score of the first is lower: -0.598 for the first, 0.152 for the second.

Going from `COc1ccc(C2C(C(C)=O)=C(O)C(=O)N2c2ccc(Br)cn2)cc1` (configuration not stated) to `CCOC(=O)c1oc2ccccc2c1CSc1nnnn1-c1ccc(OC)cc1`, the z-score rises from -0.207 to -0.0172.

Compared with `COc1ccc(CN(C2CCCCC2C)S(=O)(=O)c2ccc(S(=O)(=O)N(C)C)cc2)cc1OC` (configuration not stated), `C/C(=N/NC(=O)c1ccccc1O)c1ccc(N2C(=O)C3CCCCC3C2=O)cc1` (configuration not stated) is lower in z-score: 0.0696 for the first, 0.0283 for the second.

Compared with `Cc1ccc(S(=O)(=O)NC2(C(F)(F)F)NC(=O)N(C)C2=O)cc1` (configuration not stated), `Cc1ccc(S(=O)(=O)N2CCN(C(=O)CN3CCc4ccccc4C3)CC2)cc1` is lower in z-score: 0.0117 for the first, -0.482 for the second.

First: CCN1C(=O)/C(=C2/Sc3ccc(OC)cc3N2C)SC1=Nc1ccc(C)cc1
Second: COc1ccc(C)cc1NC(=O)C(OC(=O)c1cc(C)oc1C)c1ccccc1 (configuration not stated)
The z-score of the first is higher: -0.0515 for the first, -0.184 for the second.

First: Cn1c(=O)c2c(SCc3cccnc3)nc(C3CC3)nc2n(C)c1=O
Second: C/C(Cl)=C/Cn1c(NCCN(C)C)nc2c1c(=O)n(C)c(=O)n2C
The z-score of the first is higher: -0.454 for the first, -0.612 for the second.

Going from `O=C(NNC1=C(C(=O)C(F)(F)F)CCC1)c1ccccc1Cl` to `CC1(C)CC(=O)C2=C(C1)OC(=O)C2(NC(=O)c1cccs1)C(F)(F)F` (configuration not stated), the z-score falls from 0.932 to -0.153.

First: CCCCCn1c(=NC(C)=O)c(C#N)cc2c(=O)n3ccccc3nc21
Second: CCCCc1ccc(C(=O)NC(C(=O)O)C(C)C)cc1 (configuration not stated)
The z-score of the first is higher: 0.838 for the first, -0.49 for the second.

Going from `COc1cccc(NC(=O)c2ccccc2SC)c1` to `CCOc1ccccc1NC(=O)c1cccnc1`, the z-score falls from -0.0887 to -0.191.

First: O=S(=O)(c1ccccc1)c1nc(-c2ccco2)oc1N1CCCCCC1
Second: COc1ccccc1NS(=O)(=O)c1cccc(C(=O)N/N=C/c2c(C)nn(-c3ccccc3)c2N2CCCC2)c1
The z-score of the first is higher: -0.0809 for the first, -0.504 for the second.

Going from `c1ccc(CCNc2ncnc3nc[nH]c23)cc1` to `O=S(=O)(NCc1ccccc1)c1cccs1`, the z-score falls from 0.0353 to -0.245.

Compared with `Fc1ccc2nc3n(c2c1F)CCCCCC3`, `Clc1ccc(-n2nnnc2CN2CCOCC2)cc1Cl` is lower in z-score: 0.337 for the first, -0.0916 for the second.

Going from `CCOC(=O)COc1ncn(-c2ccccc2)n1` to `Cc1nnnn1/C(=C\c1ccccc1)C(=O)OCC(=O)NC(C)(C)C`, the z-score falls from 0.012 to -0.0667.

First: O=C(Nc1nc(-c2ccccc2)cs1)C1CCCO1 (configuration not stated)
Second: Cc1nn(Cc2ccc(Cl)cc2)c(C)c1NC(=O)c1c(-c2ccccc2)noc1C
The z-score of the first is higher: -0.00109 for the first, -0.167 for the second.

Compared with `CN(C)S(=O)(=O)Nc1ccc(Br)cc1F`, `CC(C)CC(=O)Nc1cc(C(F)(F)F)ccc1N1CCOCC1` is lower in z-score: 0.00731 for the first, -0.011 for the second.

First: Cc1nn(-c2ccc(Cl)cc2Cl)c(=O)c2ccccc12
Second: O=c1c2ccsc2ncn1Cc1ccccc1F
The z-score of the first is higher: -0.155 for the first, -0.166 for the second.

Compared with `CCC(C)N(C(=O)c1csnn1)C(C(=O)NC(C)(C)C)c1ccccc1` (configuration not stated), `Cc1ccccc1Cn1nc(C)c(NC(=O)c2cc3n(n2)C(C(F)F)CC(C(F)F)N3)c1C` (configuration not stated) is lower in z-score: -0.0354 for the first, -0.667 for the second.

Going from `O=C(c1ccc(Cl)cc1)[C@@H]1[C@@H]2C(=O)N(c3ccccc3)C(=O)[C@@H]2C2c3ccccc3C=NN21` (some centres not stated) to `c1ccc(C2OC3c4cccc5cccc(c45)C3N2c2ccccc2)cc1` (configuration not stated), the z-score falls from 0.107 to -0.603.

Going from `O=C1N(CCCN2C(=O)C3(OCCO3)c3ccccc32)c2ccccc2C12OCCO2` to `Cc1ccc(NC(=O)NC2(C(=O)NCc3ccccc3)CCCCC2)cc1`, the z-score rises from -0.237 to -0.11.

First: OCc1ccnc(Cl)c1
Second: CN(CC(=O)Nc1ccc(C#N)cc1)Cc1ccc(Cl)cc1Cl
The z-score of the first is higher: -0.0809 for the first, -0.479 for the second.

Compared with `Cn1c(SC/C=C/c2ccccc2)nnc1-c1cnccn1`, `COc1cccc(C2CC(c3ccccc3)Nc3ncnn32)c1` (configuration not stated) is higher in z-score: -0.517 for the first, 0.129 for the second.

Compared with `CC(C)CCNCC1OCc2ccccc2CO1`, `CCC1CCCCN1CCCNC(=O)CC1Oc2ccccc2NC1=O` (configuration not stated) is higher in z-score: -0.303 for the first, 1.27 for the second.

Compared with `COc1ccccc1NC(=S)NNC(=S)Nc1ccc(OC(F)F)cc1`, `COC(=O)c1sc2ccccc2c1-n1cccc1C(=O)C(=O)Nc1ccc(C)cc1` is higher in z-score: -0.345 for the first, -0.074 for the second.

Going from `C=CCNC(=O)c1onc(CSc2ccc(OC)cc2)c1C(=O)O` to `CCOC(=O)c1c(C(F)(F)F)cc(-c2ccc(F)cc2)nc1C`, the z-score falls from 0.0269 to -0.238.

`FC(F)(F)c1ccc2nnc(-c3c(Cl)cccc3Cl)n2c1` was tested, and the z-score was active: -3.58.
In the case of `CCCC(c1c(C)n(C)n(-c2ccccc2)c1=O)c1c(C)n(C)n(-c2ccccc2)c1=O`, the z-score is reported as active: -4.1.
